Experimental data published in paper PMC8730729.
Results are given in words; binding and its absence hold for the method and conditions named. In cells and extracts the contact can be indirect. Some results given as binding are weak or reduced against the parent protein; the word gives no strength. For some of these results: Tags and fused reporters may be left off the sequences shown.

Chains of the proteins cited; added tags and fusions are not shown.
UniProt P61026: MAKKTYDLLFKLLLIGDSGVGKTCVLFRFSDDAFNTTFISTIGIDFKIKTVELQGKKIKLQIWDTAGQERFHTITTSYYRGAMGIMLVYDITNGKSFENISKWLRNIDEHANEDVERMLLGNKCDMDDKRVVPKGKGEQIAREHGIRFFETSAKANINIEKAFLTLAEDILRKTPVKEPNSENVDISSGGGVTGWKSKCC
UniProt Q9NP72: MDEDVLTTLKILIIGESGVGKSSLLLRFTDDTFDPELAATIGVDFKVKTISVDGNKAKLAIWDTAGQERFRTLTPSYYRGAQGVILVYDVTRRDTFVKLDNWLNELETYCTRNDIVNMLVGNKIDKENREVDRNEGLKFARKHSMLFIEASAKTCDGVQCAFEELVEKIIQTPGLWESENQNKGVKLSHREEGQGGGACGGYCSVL
UniProt P62820: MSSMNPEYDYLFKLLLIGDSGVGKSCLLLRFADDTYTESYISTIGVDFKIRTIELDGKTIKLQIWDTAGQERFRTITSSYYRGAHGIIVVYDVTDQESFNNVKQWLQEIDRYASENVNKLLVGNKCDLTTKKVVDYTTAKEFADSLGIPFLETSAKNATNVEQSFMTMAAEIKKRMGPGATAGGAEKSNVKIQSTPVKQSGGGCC
UniProt P20340: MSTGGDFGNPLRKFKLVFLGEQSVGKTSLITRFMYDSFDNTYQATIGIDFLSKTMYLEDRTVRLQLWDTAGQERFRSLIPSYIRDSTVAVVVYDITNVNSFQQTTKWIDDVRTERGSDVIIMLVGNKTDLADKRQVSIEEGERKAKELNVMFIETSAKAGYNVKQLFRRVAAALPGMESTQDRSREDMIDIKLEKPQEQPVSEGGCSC

How the values were obtained:
[1] = target: T1, HaloTag-Hook3-3xFLAG (human) (UniProt Q86VS8); experiment: co-IP; FLAG affinity resin IP of HaloTag-Hook-3xFLAG baits from transiently transfected 293T cells; immunoblots with anti-FHIP1B, anti-FHIP2A, anti-FHIP2B; sfGFP-3xFLAG as control
T1 sequence: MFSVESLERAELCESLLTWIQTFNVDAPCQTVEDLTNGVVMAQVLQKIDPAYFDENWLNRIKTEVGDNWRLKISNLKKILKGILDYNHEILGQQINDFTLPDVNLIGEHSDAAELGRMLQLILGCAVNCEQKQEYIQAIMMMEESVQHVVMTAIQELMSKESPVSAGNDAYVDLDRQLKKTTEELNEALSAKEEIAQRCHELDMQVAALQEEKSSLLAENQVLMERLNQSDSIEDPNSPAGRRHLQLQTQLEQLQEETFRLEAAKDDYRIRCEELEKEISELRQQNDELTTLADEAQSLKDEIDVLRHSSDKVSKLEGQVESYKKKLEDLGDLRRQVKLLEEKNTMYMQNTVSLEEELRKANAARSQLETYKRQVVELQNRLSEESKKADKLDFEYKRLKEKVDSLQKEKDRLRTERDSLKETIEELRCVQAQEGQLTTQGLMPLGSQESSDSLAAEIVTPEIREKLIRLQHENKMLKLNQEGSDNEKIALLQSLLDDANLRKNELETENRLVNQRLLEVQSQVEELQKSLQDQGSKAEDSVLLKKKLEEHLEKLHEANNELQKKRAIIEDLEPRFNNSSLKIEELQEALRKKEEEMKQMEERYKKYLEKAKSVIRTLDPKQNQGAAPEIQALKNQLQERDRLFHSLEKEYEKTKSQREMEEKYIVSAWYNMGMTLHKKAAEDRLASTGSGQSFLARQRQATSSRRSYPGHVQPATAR

EGFP-Rab10 (human) = EGFP-Rab10 (human) (UniProt P61026); experiment: co-IP; GFP nanobody affinity resin IP of EGFP-Rab baits from transiently transfected 293T cells in the presence of GTPγS (2 mM in the lysis buffer); immunoblots with anti-FHIP1B or anti-FHIP2A; 3xHA-sfGFP as control
EGFP-Rab18 (human) = EGFP-Rab18 (human) (UniProt Q9NP72); experiment: as above
EGFP-Rab1A (human) = EGFP-Rab1A (human) (UniProt P62820); experiment: as above
EGFP-Rab3A (human) = target: T2, EGFP-Rab3A (human) (UniProt P20336); experiment: as above
T2 sequence: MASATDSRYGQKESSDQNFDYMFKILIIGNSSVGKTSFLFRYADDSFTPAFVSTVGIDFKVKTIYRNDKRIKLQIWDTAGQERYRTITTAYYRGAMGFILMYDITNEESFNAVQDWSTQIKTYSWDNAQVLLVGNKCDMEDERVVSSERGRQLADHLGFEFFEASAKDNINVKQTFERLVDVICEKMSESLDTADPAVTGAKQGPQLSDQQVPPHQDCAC

EGFP-Rab6A (human) = EGFP-Rab6A (human) (UniProt P20340); experiment: as above
GFP-Rab5B (human) = target: T3, GFP-Rab5B (human) (UniProt P61020); experiment: as above
T3 sequence: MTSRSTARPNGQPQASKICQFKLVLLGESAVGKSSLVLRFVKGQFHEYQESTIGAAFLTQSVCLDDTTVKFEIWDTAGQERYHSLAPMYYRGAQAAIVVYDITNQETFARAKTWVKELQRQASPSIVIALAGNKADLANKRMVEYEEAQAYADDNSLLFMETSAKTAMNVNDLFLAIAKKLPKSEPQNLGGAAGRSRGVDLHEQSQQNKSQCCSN

B1: FHIP1B, endogenous in 293T cells (protein, UniProt Q8N612 1-972)
chain: MERMNWLSRLASRGPGHRIPQGANLQTPVMADPETCLMVFKNHWSQVVRILERQGPRAAPGGADDLSAVRNHTYQMLTLLAEDRAVPSAPTGPGPLLEFALHEDLLTRVLTWQLQWDELGDGVEERRAEQLKLFEMLVSEARQPLLRHGPVREALLTLLDACGRPVPSSPALDEGLVLLLSQLCVCVAQEPSLLEFFLQPPPEPGAAPRLLLFSRLVPFVHREGTLGQQARDALLLLMALSAGSPTVGRYIADHSYFCPVLATGLSALYSSLPRKIEVPGDDWHCLRREDWLGVPALALFMSSLEFCNAVIQVAHPLVQKQLVDYIHNGFLVPVMGPALHKTSVEEMIASTAYLELFLRSISEPALLRTFLRFLLLHRHDTHTILDTLVARIGSNSRLCMVSLSLFRTLLNLSCEDVLLQLVLRYLVPCNHVMLSQKPAVRDVDLYGRAADKFLSLIPRCCRHHAPSPPRPEHASWARGPGSPSVDSSSVTTVPRPSTPSRLALFLRQQSLGGSESPGPAPCSPGLSASPASSPGRRPTPAEEPGELEDNYLEYLREARRGVDRCVRACRTWSAPYDGERPSPEPSPFGSRTKKRSLLPEEDRNNVGEGEEEELGRRGRAGGAGEGPGHLPPPQLNGVPGSWPEGAKKVRLVPKEGAGELLEGISEGMAGLEGFGQELRELEVALSNGGTGSESPLEPPLPLEEEEAYESFTCPPEPPGPFLSSPLRTLNQLPSQPFTGPFMAVLFAKLENMLQNSVYVNFLLTGLVAQLACHPQPLLRSFLLNTNMVFQPSVKSLLQVLGSVKNKIENFAASQEDFPALLSKAKKYLIARGKLDWAEGPAAGPAPRRSDPLVKSRRPSLGELLLRHAHSPTRARQAAQLVLQPGRDGAGLGLSGGSPGASTPVLLTRGGAPERQGEALRVKNAVYCAVIFPEFLKELAAISQAHAVTSPFLLETSEEGSGPLISGCGPLNP
binding [1]: binds | binding (EGFP-Rab10 (human)): no binding | binding (EGFP-Rab18 (human)): no binding | binding (EGFP-Rab1A (human)): no binding | binding (EGFP-Rab3A (human)): no binding | binding (EGFP-Rab6A (human)): no binding | binding (GFP-Rab5B (human)): binds
